# Measured values reported in paper PMC4336329 (PLoS ONE, 2015).
# About 2,200 (0.71%) of roughly 310,000 compounds showed an effect of 50% or more. Effects have a minus sign here. Some of the results follow.
# Biological target: human ether-à-go-go-related gene (hERG) potassium channel (human, UniProt Q12809)
# Assay: primary screen, population patch clamp on CHO cells stably expressing hERG
# Chain of human ether-à-go-go-related gene (hERG) potassium channel (Q12809 whole entry, looked up): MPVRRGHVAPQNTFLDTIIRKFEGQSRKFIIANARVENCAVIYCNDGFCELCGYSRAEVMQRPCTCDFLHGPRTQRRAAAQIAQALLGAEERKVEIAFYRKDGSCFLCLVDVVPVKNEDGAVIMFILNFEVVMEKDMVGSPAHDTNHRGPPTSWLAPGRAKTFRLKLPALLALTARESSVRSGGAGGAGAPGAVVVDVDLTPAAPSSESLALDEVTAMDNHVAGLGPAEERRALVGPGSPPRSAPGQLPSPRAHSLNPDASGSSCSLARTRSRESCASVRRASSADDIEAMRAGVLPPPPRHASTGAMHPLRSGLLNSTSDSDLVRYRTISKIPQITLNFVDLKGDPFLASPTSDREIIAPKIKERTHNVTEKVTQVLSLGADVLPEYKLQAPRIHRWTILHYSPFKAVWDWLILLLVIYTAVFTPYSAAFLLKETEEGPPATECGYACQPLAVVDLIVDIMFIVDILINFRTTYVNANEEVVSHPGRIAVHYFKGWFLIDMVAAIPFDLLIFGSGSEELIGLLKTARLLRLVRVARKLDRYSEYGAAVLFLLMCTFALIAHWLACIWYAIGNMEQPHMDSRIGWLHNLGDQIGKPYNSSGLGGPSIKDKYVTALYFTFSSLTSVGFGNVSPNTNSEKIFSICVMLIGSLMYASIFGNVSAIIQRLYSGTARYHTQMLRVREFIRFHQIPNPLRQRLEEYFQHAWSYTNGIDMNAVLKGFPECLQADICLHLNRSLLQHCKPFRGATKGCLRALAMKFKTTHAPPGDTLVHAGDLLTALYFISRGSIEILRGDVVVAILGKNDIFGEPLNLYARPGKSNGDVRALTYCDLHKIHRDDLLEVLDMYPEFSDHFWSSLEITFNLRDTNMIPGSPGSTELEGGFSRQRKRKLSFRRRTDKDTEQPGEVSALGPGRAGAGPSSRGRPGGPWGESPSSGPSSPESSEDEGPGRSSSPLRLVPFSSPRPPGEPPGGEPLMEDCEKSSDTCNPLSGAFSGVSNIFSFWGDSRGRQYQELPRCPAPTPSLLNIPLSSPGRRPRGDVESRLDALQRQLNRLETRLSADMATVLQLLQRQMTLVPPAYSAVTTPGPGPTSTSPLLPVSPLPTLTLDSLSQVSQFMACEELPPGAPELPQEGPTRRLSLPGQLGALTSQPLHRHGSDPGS
row,Structure (SMILES),"hERG current change (%, negative = inhibition) at 1uM [%]"
1,CCOC(=O)Cn1c2c(c(=N)c3ccccc31)CCC2.Cl,12.7
2,COc1ccc(CCNC(=O)COC(=O)/C=C/c2cccs2)cc1OC,11.7
3,Cc1ccc(C(=O)Nc2nc3ccc(S(C)(=O)=O)cc3s2)cc1C,10.9
4,CCOc1cc(/C=N/NC(=O)C(=O)NCCCOC(C)C)cc(Br)c1O,13.4
5,Cc1cc(S(=O)(=O)N2CCOCC2)ccc1OCC(=O)Nc1ccc(F)cc1F,12.3
6,COc1cc(CNC(C)C)c(Br)cc1OC1CCCC1.Cl,7.89
7,COC(=O)C/C=C/[C@@H](C)[C@@H](/C=N/OC[C@@H](C)[C@H](OCc1ccccc1)C(C)C)NS(=O)(=O)c1ccc(C)cc1,8.39
8,CC(C)NC(=O)c1onc(CSc2ccncc2)c1C(=O)NC(C)C,10.7
9,O=C(NCc1ccc(F)cc1)C(c1ccco1)N(C(=O)c1csnn1)c1ccccc1 (stereo not drawn),3.49
10,CCC(=O)Nc1nnc(SCC(=O)c2ccc3c(c2)Cc2ccccc2-3)s1,9.92
11,CC(C)c1ccc(NC2CCCN(C(=O)c3ccnn3C)C2)cc1 (stereo not drawn),8
12,COc1cccc(N2CCN(Cc3nc4ccccc4c(=O)[nH]3)CC2)c1,3.68
13,CN(C)S(=O)(=O)c1ccc(Cl)c(NC(=O)COC(=O)c2ccc3c(c2)NC(=O)CS3)c1,9.27
14,Cc1ccccc1N1CCN(C(=S)c2ccc(-c3ccc([N+](=O)[O-])cc3)o2)CC1,15.9
15,CCC(C)NC(=O)c1cc(-c2cccs2)nc2ccccc12 (stereo not drawn),18.8
16,CCC(C)(NC(=O)c1cccc(N2C(=O)CSC2c2ccccc2)c1)C(=O)Nc1ccccc1C (stereo not drawn),10.4
17,COc1cc(OC)cc(-c2c(-c3cccs3)c3cc(-c4cccc5[nH]ccc45)ccc3n2C)c1,17.3
18,Cc1nnc(SCC(=O)NNC(=O)CC#N)[nH]c1=O,2.44
19,Cc1cc2occ(CC(=O)NC3(C)CCS(=O)(=O)C3)c2cc1C (stereo not drawn),0.741
20,COC(=O)c1ccc(-n2cnc(Cl)n2)c(F)c1,3.18
21,CCCCNC(=O)CC(=O)Nc1ccccc1C(=O)O,8.21
22,Cn1c(NC(=O)C2c3ccccc3Oc3ccccc32)cc(=O)n(C)c1=O,8.56
23,O=c1cc(NCc2ccccc2)nc2ccccn12,14.2

row,Structure (SMILES),"hERG current change (%, negative = inhibition) at 1uM [%]"
1,COc1ccc(C(C)(C)C)cc1S(=O)(=O)N1CCC(C(N)=O)CC1,16.9
2,CCOc1cccc(CNCc2cccnc2)c1OCc1ccccc1.Cl,-0.955
3,CCN1C(=O)N(C)[C@@H](c2ccccc2)C(C(=O)OC)=C1C,4.86
4,Cc1nc(=O)c(-c2ccccc2)c(C)n1-c1ccccc1O,15.1
5,CCC(c1nnnn1C1CCCCC1)N1CCN(C(=O)c2ccco2)CC1.Cl (stereo not drawn),13
6,CCSc1nnc([C@@H](NC(=O)OC(C)(C)C)C(C)C)o1,9.61
7,Cc1ccccc1OCc1nc2c3cnn(C)c3ncn2n1,13.7
8,COC(=O)c1cc(NC(=O)C2C3C=CC(C3)C2C(=O)O)cc(C(=O)OC)c1 (stereo not drawn),1.02
9,CCOC(=O)c1c(C)[nH]c(C(=O)CSc2nnc(Nc3ccccc3F)s2)c1C,2.15
10,CC1(NC(=O)CCS(=O)(=O)c2ccc(Cl)cc2)CCS(=O)(=O)C1 (stereo not drawn),7.93
11,CN1CCN(c2ccc([N+](=O)[O-])c(NCc3ccco3)c2)CC1,-9.43
12,O=C(O/N=C1/CCSc2ccccc21)c1ccccc1,10.6
13,CC(C)(C)c1ccc(C(=O)NCCCNC(=O)c2ccccn2)cc1,1.66
14,CC1(C)C2CC[C@]3(C)C(CC=C4[C@@H]5C[C@@](C)(CO)[C@@H]6C[C@@]5(CC[C@]43C)C(=O)O6)[C@@]2(C)CC[C@@H]1O (stereo partly drawn),16.2
15,Cc1ccc(C(=O)CSc2ncn[nH]2)cc1,-2.14
16,Cc1ccc(SC/C(O)=C(\C#N)c2nc3ccccc3s2)cc1,17.8
17,O=C(NCc1ccco1)/C(=C\c1cccs1)NC(=O)c1cccs1,15.5
18,CCn1c(C(=O)NC2CCC(C)CC2)cc2sccc21 (stereo not drawn),16.5
19,Cc1ccc(S(=O)(=O)NC(=O)Nc2ccccc2F)cc1,13.1
20,COc1ccc(NC(=O)c2nc[nH]c2C(=O)N2CCN(C(=O)OC(C)(C)C)CC2)cc1,-18.4
21,COC(=O)c1ccc(C(=O)OC)c(-n2c(=O)c3ccccc3c3ccccc3c2=O)c1,3.79
22,CN(C)N=Nc1ccc(S(=O)(=O)NC(Cc2ccccc2)C(=O)O)cc1 (stereo not drawn),24.8
